From paper PMC7673785 come the findings set out here.

Chains of the proteins cited; added tags and fusions are not shown. Lines headed by an entry give the natural chain unless they say otherwise; changes in a name come on top.
UniProt Q9QZL0: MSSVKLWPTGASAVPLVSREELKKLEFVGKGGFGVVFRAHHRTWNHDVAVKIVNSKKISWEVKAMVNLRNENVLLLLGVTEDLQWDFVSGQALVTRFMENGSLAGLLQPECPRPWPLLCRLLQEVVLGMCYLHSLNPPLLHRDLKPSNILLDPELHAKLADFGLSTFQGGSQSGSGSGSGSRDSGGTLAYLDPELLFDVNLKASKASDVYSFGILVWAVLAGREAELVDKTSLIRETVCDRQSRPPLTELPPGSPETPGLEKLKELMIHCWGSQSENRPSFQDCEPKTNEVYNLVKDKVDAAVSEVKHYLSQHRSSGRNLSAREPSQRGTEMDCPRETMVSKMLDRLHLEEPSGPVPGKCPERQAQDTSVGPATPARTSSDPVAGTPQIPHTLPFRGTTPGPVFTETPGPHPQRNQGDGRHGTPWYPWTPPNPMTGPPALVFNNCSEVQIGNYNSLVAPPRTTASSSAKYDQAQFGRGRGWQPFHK
UniProt Q9Y572: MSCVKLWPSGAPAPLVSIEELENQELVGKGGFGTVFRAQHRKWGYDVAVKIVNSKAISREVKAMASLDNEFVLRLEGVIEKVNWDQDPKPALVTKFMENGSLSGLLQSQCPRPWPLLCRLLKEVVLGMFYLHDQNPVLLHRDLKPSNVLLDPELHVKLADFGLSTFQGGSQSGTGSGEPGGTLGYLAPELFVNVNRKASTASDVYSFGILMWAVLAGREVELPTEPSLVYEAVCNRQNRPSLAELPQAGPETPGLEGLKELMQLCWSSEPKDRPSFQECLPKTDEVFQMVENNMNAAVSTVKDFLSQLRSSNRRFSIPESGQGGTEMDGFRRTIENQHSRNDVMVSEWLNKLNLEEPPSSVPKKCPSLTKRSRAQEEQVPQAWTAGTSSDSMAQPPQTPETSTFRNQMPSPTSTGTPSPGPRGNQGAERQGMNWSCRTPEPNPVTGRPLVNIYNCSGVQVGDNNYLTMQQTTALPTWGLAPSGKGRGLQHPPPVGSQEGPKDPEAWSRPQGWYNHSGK
UniProt Q8BVP5: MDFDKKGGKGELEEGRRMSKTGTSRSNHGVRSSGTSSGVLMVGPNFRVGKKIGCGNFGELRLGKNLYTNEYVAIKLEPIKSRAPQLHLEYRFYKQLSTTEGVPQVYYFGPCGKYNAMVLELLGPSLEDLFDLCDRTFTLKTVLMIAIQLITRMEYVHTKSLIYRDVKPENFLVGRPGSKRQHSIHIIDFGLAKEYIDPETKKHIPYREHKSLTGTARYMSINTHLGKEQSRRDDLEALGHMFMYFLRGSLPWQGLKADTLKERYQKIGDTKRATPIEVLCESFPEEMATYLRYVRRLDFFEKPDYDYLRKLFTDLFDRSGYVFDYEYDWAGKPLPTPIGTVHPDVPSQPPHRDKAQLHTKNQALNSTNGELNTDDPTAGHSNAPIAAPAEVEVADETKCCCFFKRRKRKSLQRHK
UniProt P78368: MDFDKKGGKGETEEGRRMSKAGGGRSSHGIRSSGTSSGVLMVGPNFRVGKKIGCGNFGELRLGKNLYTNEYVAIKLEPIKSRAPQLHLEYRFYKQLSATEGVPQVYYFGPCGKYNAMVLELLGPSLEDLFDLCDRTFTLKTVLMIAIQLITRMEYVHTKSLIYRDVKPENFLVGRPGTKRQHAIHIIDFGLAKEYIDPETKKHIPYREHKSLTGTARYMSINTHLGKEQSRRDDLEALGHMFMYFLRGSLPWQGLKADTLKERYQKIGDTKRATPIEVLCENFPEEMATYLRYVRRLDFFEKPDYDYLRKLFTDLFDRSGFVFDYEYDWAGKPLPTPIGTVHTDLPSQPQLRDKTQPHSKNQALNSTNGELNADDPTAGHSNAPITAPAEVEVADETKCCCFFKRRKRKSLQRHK
UniProt Q13546: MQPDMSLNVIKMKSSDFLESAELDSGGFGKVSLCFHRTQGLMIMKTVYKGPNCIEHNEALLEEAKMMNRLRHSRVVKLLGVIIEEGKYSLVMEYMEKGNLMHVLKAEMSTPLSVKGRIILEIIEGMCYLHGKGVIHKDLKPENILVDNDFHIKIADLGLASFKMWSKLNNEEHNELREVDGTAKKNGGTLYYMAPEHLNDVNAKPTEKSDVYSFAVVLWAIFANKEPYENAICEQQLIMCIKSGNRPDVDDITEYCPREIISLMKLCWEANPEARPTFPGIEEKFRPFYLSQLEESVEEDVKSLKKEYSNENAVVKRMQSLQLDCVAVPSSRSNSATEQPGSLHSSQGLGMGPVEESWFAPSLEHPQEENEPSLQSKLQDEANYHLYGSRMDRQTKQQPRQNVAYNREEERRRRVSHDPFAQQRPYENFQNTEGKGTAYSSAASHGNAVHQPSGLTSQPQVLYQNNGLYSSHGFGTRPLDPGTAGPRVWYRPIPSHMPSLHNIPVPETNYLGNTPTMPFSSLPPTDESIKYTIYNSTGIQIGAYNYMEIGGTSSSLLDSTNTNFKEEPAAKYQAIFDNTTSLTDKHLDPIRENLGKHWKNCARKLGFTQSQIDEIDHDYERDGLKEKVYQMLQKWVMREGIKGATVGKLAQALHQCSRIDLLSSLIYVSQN

For experiment [1], the target named is Flag-RIPK3 (in MEFs) (not stated (human or mouse cDNA cloned)) (UniProt Q9QZL0). Kind of experiment: co-IP; MEF (Csnk1g2−/−) co-transfected with Myc-CSNK1G2 (WT or K75A) and Flag-RIP3 for 24 hr; extracts precipitated with anti-Flag antibody, western blot for Myc and Flag. (A western blot detects proteins with antibodies after separation by electrophoresis.)
Experiment [2] has the same target. Nature of the experiment: co-IP; MEF-Flag-RIPK3 and MEF (Csnk1g2−/−)-Flag-RIPK3 cells treated with the indicated stimuli for 6 hr; extracts precipitated with anti-Flag antibody, western blot for RIPK1 and CSNK1G2.
The target in experiment [3] is HA-3×Flag-RIPK3 (in HeLa-HA-3×Flag-RIPK3 cells) (human) (UniProt Q9Y572). Nature of the experiment: co-IP; HeLa-HA-3×Flag-RIPK3 cells expressing Myc-CSNK1G2 (vector, WT, K75A or S211A/T215A), treated with DMSO or TSZ for 6 hr; extracts precipitated with anti-Flag antibody, western blot; lysis buffer 100 mM Tris-HCl pH 7.4, 100 mM NaCl, 10% glycerol, 1% Triton X-100, 2 mM EDTA; overnight at 4°C.

Experiment [4] concerns the target CSNK1G2 (endogenous, mouse) (mouse (endogenous in MEF and testis)) (UniProt Q8BVP5). Kind of experiment: co-IP; testis extracts of 3-month-old wild-type and Csnk1g2 knockout mice (pool of three mice each); CSNK1G2 precipitated with anti-CSNK1G2 antibody, western blot.

Results are given in words; binding and its absence hold for the method and conditions named. Binding seen in cells or lysates may run through a third protein. Some entries that bind do so weakly or less than the wild type.

For the substance “Myc-tagged CSNK1G2 kinase-dead mutant (K75A) (in Csnk1g2−/− MEFs) (from UniProt Q8BVP5 1-415) (enzyme)”, the binding entry in experiment [1] was “no binding”.

Regarding “CSNK1G2 (endogenous, mouse) (from UniProt Q8BVP5 1-415) (enzyme)”, the binding entry in experiment [2] was “binds”.

As for “Myc-CSNK1G2(K75A) (from UniProt P78368 1-415) (enzyme)”, the binding entry in experiment [3] is “no binding”.

In the case of “Myc-CSNK1G2 (S211A/T215A) (from UniProt P78368 1-415) (enzyme)”, in experiment [3], the binding result is “no binding”.

On to “RIPK1 (endogenous, HeLa) (from UniProt Q13546 1-671) (enzyme)”, for which, in experiment [3], the binding entry is on record as “binds”.

As to “Myc-tagged wild-type (WT) CSNK1G2 (in Csnk1g2−/− MEFs) (from UniProt Q8BVP5 1-415) (enzyme)”, in experiment [1], the binding result is “binds”.

Regarding “RIPK3 (endogenous, mouse testis) (from UniProt Q9QZL0 1-486) (enzyme)”, the binding entry in experiment [4] was “binds”.

Take “Myc-tagged human CSNK1G2, wild type (from UniProt P78368 1-415) (enzyme)”: the binding result in experiment [3] is “binds”.
